The text below walks through data of the supplement of paper PMC10126150.

Values marked as one replicate rest on one cluster of the flow cell; about a third of the high ones do not repeat.

For this data set, the system named is ATP. The data set can be described thus: switch fluorescence ratio, 500 uM ATP over buffer (Cy3 cluster intensity, sum of 5 cycles each) (fold (ratio)); higher = stronger signal-on switching upon ATP binding; sequences stand for … in TCGTCGGCAGCGTCAGATGTGTATAAGAGACAGTTTTTTTTTTTTTTTTTTTTTTTTT…TC. The note with it: aptamer strand: ATP DNA aptamer (quencher-CACCTGGGGGAGTATTGCGGAGGAAGG + anchor), 100 nM annealed; ATP concentration: 500 uM; one replicate. In short, it runs like this: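 The quencher-labelled ATP aptamer, at 100 nM, was annealed to Cy3-labelled switching-strand clusters on a modified Illumina MiSeq flow-cell. The clusters were imaged in selection buffer, then after 15 min with 500 uM ATP at 22 °C, and this buffer/ATP cycle ran five times with NaOH stripping and re-annealing between runs. Per-cluster fluorescence ratios, summed target-cycle over summed buffer-cycle Cy3 intensity, were averaged per switch-domain sequence. Clusters outside 100-1000 RFU were excluded.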
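Note: ATP exposure 15 min at 22 °C before imaging.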

Regarding AATCAGAGCA, the switch fluorescence ratio came out at 1.05.
As to GCACCCATAC, the switch fluorescence ratio is 1.42.
To GCCGTCATCT belongs 1.05; to CACTGGTGTT, 1.16.
For CCCAAAGTGC, the switch fluorescence ratio worked out at 1.66.
For AGATACGGG, the switch fluorescence ratio was determined as 1.06.
For TACCAAACCG, the switch fluorescence ratio is 1.15.
To GAGCCCGGTG belongs 2.84; to GTCGTCCTGG, 1.03.
Consider ACAAGGGCTG, for which the switch fluorescence ratio was 1.04.
As for GAGGCATCAC, the switch fluorescence ratio turned out to be 1.36.
In the case of GGGATCGATA, the switch fluorescence ratio was determined as 0.995.
Under CGCAATTTTG stands 3.3; under TGTCCAGAAG, 0.99; under GTGATCCGAT, 1.02.
With GCAAAGTTGT, the switch fluorescence ratio amounted to 0.995.
Consider GGCTTGCAGA, for which the switch fluorescence ratio was determined as 0.975.
Under ATTTACGTTT stands 1.01.
TCTCGGTTCC: the switch fluorescence ratio was 1.03.
As to CTTGGTTTAA, the switch fluorescence ratio turned out to be 0.914.
For AAAAATAAAA, the switch fluorescence ratio is 0.996.
Regarding TATACAGGCA, the switch fluorescence ratio stood at 1.02.
Regarding CGGTCTTTAA, the switch fluorescence ratio was 0.979.
On to GCGTACGTTT, for which the switch fluorescence ratio is 0.984.
Consider ACAGTGTCAC, for which the switch fluorescence ratio was found to be 0.964.
To ACTTTAAGAT belongs 1.04.
Under ATTATTAGA stands 0.977.
GACGCCCGCT: the switch fluorescence ratio came to 1.31.
GGGCGGTATT: the switch fluorescence ratio turned out to be 0.969.
As for AAAAGGGTGG, the switch fluorescence ratio was 1.
Under ATGAGCACTA stands 1.03.
For CAACAGGTCA, the switch fluorescence ratio amounted to 0.963.
Consider TAAGATTTT, for which the switch fluorescence ratio is 0.988.
Turning to CGTTAGTCCT, the switch fluorescence ratio was determined as 1.02.
On to TCGAATACTA, for which the switch fluorescence ratio was determined as 1.08.
Turning to GCCACGATAT, the switch fluorescence ratio came out at 1.21.
As to GGATCCTGTA, the switch fluorescence ratio was found to be 0.997.
For the sequence GTGCCTCTCA, the switch fluorescence ratio is 1.
For the sequence CGCCGTGTGC, the switch fluorescence ratio came out at 1.11.
To GGGATTCT belongs 1.05; to TATTTTCCAA, 1.04.
Under CGGTCTGCTG stands 0.933.
Under CATTCGAACA stands 1.02; under CTTATCACCT, 1.15.
Regarding TGTTATCGTA, the switch fluorescence ratio was found to be 1.03.
For ATTACCGGTA, the switch fluorescence ratio turned out to be 1.01.
Under GGCACAAATC stands 0.97; under TACAAATGAC, 1.04; under AAAGGTCAAA, 0.994.
To TCATGATTGT belongs 0.99; to AATTTGTGCT, 0.98.
Under GGGGGGACAT stands 1.02; under CGGCCGGCTT, 0.993.
As for GGCGACATAC, the switch fluorescence ratio was determined as 1.52.
On to ACGGGGTC, for which the switch fluorescence ratio worked out at 0.974.
In the case of GCATTCGTTT, the switch fluorescence ratio amounted to 0.957.
Under TCGGGTTAT stands 1.01.
Under CTCAATGGTG stands 1.44; under GTTGAACGCC, 1.17.
Under CGCTGGGGTC stands 1.02; under CACACCTGGA, 1.11.
CCAATTAGGC: the switch fluorescence ratio turned out to be 1.04.
To GCCATTTATG belongs 0.977.
For the sequence TACATACCCT, the switch fluorescence ratio was found to be 1.06.
To TCTACAGGGG belongs 1.41.
As to GCCGGCAGAG, the switch fluorescence ratio came to 0.984.
For AATATTCTAC, the switch fluorescence ratio is 1.02.
